# Reference: PMC6919601, “Identification of Plasmodium dipeptidyl aminopeptidase allosteric inhibitors by high throughput screening” (PLoS ONE, 2019)
# In all, about 110,000 compounds went through this assay and about 230 (0.21%) showed an effect of 50% or more. The list shows a part of the results.
# Target: DPAP1 (Plasmodium falciparum, UniProt Q8IIJ9)
# Experiment: primary screen, percent inhibition; read by cleavage of a fluorogenic dipeptide substrate; higher = more effect of the substance
# Design: species or system P. falciparum D10 trophozoite lysates; single well
# 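Note: 30 min substrate incubation versus DMSO and 10 µM JCP410 controls.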
# DPAP1, sequence (Q8IIJ9 whole entry, looked up): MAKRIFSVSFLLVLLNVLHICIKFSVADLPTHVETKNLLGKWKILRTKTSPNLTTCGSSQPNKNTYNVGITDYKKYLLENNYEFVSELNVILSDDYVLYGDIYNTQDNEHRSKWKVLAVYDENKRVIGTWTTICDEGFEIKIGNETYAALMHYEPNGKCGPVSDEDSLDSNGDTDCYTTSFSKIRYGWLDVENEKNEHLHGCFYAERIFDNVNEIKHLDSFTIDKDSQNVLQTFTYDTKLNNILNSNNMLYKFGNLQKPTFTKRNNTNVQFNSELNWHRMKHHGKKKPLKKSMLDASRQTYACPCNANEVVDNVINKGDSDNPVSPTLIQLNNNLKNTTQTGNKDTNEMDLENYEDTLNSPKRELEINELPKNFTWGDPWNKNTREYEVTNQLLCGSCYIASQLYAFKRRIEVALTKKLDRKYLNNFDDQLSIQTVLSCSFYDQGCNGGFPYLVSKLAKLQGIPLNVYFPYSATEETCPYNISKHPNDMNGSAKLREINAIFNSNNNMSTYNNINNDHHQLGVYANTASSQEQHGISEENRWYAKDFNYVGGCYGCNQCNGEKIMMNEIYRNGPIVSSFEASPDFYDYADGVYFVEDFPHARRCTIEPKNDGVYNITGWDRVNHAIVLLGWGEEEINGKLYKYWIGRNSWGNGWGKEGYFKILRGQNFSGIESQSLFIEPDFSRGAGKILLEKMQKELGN
row,SMILES,% Inhibition @ 10 uM [%]
1,O=C1CC(NC23CC4CC(CC(C4)C2)C3)C(=O)N1c1ccccc1Cl (stereo not shown),-6.24
2,CC(C)Oc1ccc(C(=O)NCc2cccnc2)cc1,-0.473
3,Cc1nc2sc3c(N)ncnc3c2c(C)c1C,0.392
4,CC(C)(C)c1cc(S(N)(=O)=O)cc(C(C)(C)C)c1F,-1.42
5,Cc1cccc(NC(=O)c2ccc(S(=O)(=O)N3CCCCC3C)cc2)c1C (stereo not shown),-7.62
6,Cc1cc(Cl)ccc1NC1=NS(=O)(=O)c2ccccc21,2.7
7,COc1cc(C(=O)N2CCN(C(=O)COc3ccc(C)cc3)CC2)cc(OC)c1OC,9.1
8,O=C(NCc1ccc2c(c1)OCO2)c1cc2c(=O)oc3ccccc3c2s1,4.33
9,COC(=O)c1c(NC(=O)CCCOc2ccc(C(C)(C)C)cc2)sc2c1CCC2,0.487
10,COc1ccccc1/C=C/C=c1\sc2nc(-c3cccc(C)c3)nn2c1=O,-2.98
11,Cc1[nH]c(-c2ccc(F)cc2)cc1C(=O)NCc1ccc2c(c1)OCO2,-1.26
12,CCOC(=O)c1c(N)sc2c1CCC2,11.6
13,CC(=O)c1c(C)n(Cc2ccccc2)c2ccc(O)cc12,-1.37
14,COC(=O)c1cc(S(=O)(=O)NC(C)c2ccccc2)cn1C (stereo not shown),-8.56
15,O=C1N/C(=C/c2ccc(Br)cc2)C(O)=C1/C=N/Cc1ccccc1,0.317
16,Cc1cc(C(F)(F)F)nn1C(=O)c1cccnc1Cl,-2.9
17,CCOC(=O)C1=C(CS(=O)(=O)c2ccc(F)cc2)NC(=O)NC1c1ccc(O)c(O)c1 (stereo not shown),-2.16
18,CC(C)c1ccc(NC(=O)CC2SC(N)=NC2=O)cc1 (stereo not shown),-3.1
19,C=CCOc1ccc(/C=c2\sc3nc(-c4ccc(F)cc4)nn3c2=O)cc1,2.24
20,CCCCCP(=O)(O)c1ccccc1,2.76
21,COc1cc(CN2CCN(c3ccccc3C)CC2)cc(Br)c1O,-6.47
22,O=C(CC1(O)C(=O)Nc2ccccc21)c1ccc2ccccc2c1 (stereo not shown),-3.48
23,CCCCC(=O)NC1(C(F)(F)F)C(=O)Nc2c1c(=O)[nH]c(=O)n2CCc1ccc(OC)c(OC)c1 (stereo not shown),5.12
24,Cc1c(Br)c(C(F)(F)F)nn1CC(=O)NCCc1ccccc1,-2.85
25,CC1=CC(C)C2COC(c3ccc4c(c3)OCO4)C1C2C (stereo not shown),5.16
26,COc1cc(CNCc2ccccc2)ccc1Oc1nc2ccccc2n2cnnc12,3.93

row,SMILES,% Inhibition @ 10 uM [%]
1,CC(C)CNC(=O)CN(C1CCCCC1)S(C)(=O)=O,1.17
2,COc1cc(CN2CC(C)OC(C)C2)cc(OC)c1OC (stereo not shown),7.2
3,Cc1nc2ccc(S(=O)(=O)N(C)CC(=O)NCc3ccc(F)cc3)cc2s1,7.31
4,C#CC12C(=O)N(C)C3C(CCO)C1C=CCC32 (stereo not shown),3.8
5,CCOC(=O)N1CCC(NC(=O)C2CCN(S(=O)(=O)c3cccs3)CC2)CC1,-3.36
6,COc1ccc(N2CCN(CC(O)COc3ccc(Cl)c(C)c3)CC2)cc1 (stereo not shown),-1.22
7,O=C1NC(=O)/C(=C\c2ccc(C(=O)O)cc2)N1,-1.25
8,Cc1ccc(S(=O)(=O)N2CCC2)cc1,-2.51
9,CCC(=O)N1C(C(=O)NCc2ccc(F)cc2)CSC12CCN(C)CC2 (stereo not shown),-5.15
10,Cc1nc2nc(NC(=O)Cc3ccccc3)nn2c(C)c1Cl,2.05
11,COc1cccc(CN2CCN(Cc3cccc(Cl)c3)CC2)c1,4.37
12,CCn1cc(-c2c(C#N)c(N)nc(OC)c2C#N)c(C)n1,2.77
13,CCCCCc1c(C)nc(N2CCN(Cc3ccc4c(c3)OCO4)CC2)nc1O,3.36
14,CCOC(=O)C1=C(O)/C(=C\c2ccccc2OC)N=C1C,-1.6
15,CCO/C(O)=C1\C(C)=NC(=S)NC1c1ccc(Cl)c(Cl)c1 (stereo not shown),-5.28
16,O=C(c1coc(=O)c2ccccc12)N1CCN(Cc2ccccc2)CC1,4.33
17,Cc1cc(N2C(=O)c3ccc(C45CC6CC(CC(C6)C4)C5)cc3C2=O)no1,0.032
18,O=C(Nc1cccc(NC(=O)c2ccc(Br)o2)n1)c1ccc(Br)o1,2.79
19,COc1ccccc1CN1CCC(CNS(=O)(=O)c2cc(-c3cc(C)no3)ccc2C)CC1,-5.69
20,Cc1cc(NC2(C(F)(F)F)N=C3SCCN3C2=O)no1 (stereo not shown),-5.2
21,Cc1ccc(SCCC(=O)NCC2CCCO2)cc1 (stereo not shown),0.145
22,Cc1ccc2oc(-c3ccc(C)c(NC(=O)c4ccccc4)c3)nc2c1,-4.31
23,CCN(CCN(C)C)Cc1ccc(OC)c(OC)c1,-1.78
24,Cc1ccc(CNC(=O)C2CCN(S(=O)(=O)c3cccc4nsnc34)CC2)cc1,-1.54
25,CCC(C)NC(=O)C1CC(=O)N(Cc2ccc(OC)cc2)C1 (stereo not shown),-1.79
26,CCc1ccc(CNCc2c(C(=O)O)n(Cc3ccccc3F)c3ccccc23)cc1,2.24
